According to PubChem BioAssay (NCI):
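96-well plates; 48 h exposure; 5 concentrations. Endpoints by linear interpolation between flanking doses. Not reached: highest tested concentration assigned. Here, GI50 denotes the concentration required for 50% inhibition of growth. TGI: concentration producing complete growth inhibition.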

System: NCI-H322M lung
Experiment: NCI anticancer screen, dose series, 48 h

With `CCCCCCNC(=O)Oc1ccc(/C(=C(/C)c2ccc(OC)cc2)c2ccc(OCCN3CCCCCC3)cc2)cc1` the GI50 was 9.73 µM and the TGI was 27.5 µM.

For `COc1cc(OC)c(S(N)(=O)=O)cc1C(=O)/C=C/c1ccccc1`, the GI50 was 10.7 µM and the TGI was 22.6 µM.

`O=C(CCCCCCNC(=O)C(O)(O)C(F)(F)F)Nc1ccc(Cl)cc1` showed a GI50 of 8.06 µM and a TGI of over 36.8 µM.

Work on `Cc1cc(O)c(=O)cc2c1C[C@H]1CC(C)(C)/C=C/C[C@]3(C)Oc4cc(=O)c(O)cc(C)c4C[C@H]3C[C@H](O)[C@@]1(C)O2` yielded a GI50 of 0.0301 µM and a TGI of over 16.7 µM.

`C#Cc1nc(/C=C/C(=O)c2nccn2C)cs1` showed a GI50 of 1.95 µM and a TGI of 7.71 µM.

For `N#Cc1c(-n2c(Br)c(Br)c3cc(Br)ccc32)[nH]c2c(Br)cc(Br)cc12`, the GI50 was 1.42 µM and the TGI was over 15 µM.
